Screen size: about 370,000 compounds; about 150 (0.041%) were called active. Inconclusive means that the source gave no clear call. Such entries were picked first, then a sample of the others. Calls follow the shape of the dose curve; as a rule, active = well fitted inhibition curve with a large enough effect; inconclusive = small, poorly fitted or top-dose-only effect; inactive = flat fitted curve, though single readings scatter. No potency is given beside an inconclusive call; the fits are too rough.
molecular target: Beta-lactamase (Escherichia coli (strain K12)) (UniProt P00811); test: qHTS Inhibitors of AmpC Beta-Lactamase (assay with detergent); settings: AmpC hydrolysis of nitrocefin, absorbance 480 nm, 0.01% Triton; activity change, negative = inhibition: at 114 µM (top of the series); also: nearly all actives have a fitted effect of over 25% in size;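 as to activity change, negative = inhibition: 0% = no-compound wells and -100% = no-enzyme wells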
UniProt P00811, sequence (P00811 whole entry, looked up): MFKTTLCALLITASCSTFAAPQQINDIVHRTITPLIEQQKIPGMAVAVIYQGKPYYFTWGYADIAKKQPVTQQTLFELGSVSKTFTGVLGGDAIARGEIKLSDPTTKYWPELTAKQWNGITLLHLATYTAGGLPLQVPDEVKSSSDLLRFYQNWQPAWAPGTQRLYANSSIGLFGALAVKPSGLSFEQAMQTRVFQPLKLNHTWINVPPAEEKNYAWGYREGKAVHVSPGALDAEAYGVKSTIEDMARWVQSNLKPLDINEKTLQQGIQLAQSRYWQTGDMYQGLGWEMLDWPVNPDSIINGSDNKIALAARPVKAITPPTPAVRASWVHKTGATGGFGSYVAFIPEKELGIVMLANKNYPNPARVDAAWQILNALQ
How it was run: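 20 mM phosphate pH 7.0 + 0.01% (detergent screen) or 0.0001% Triton X-100; 5.3 nM AmpC reagent; cpd preinc 15 min RT; nitrocefin (800 uM stock) to start; A480 q20 s × 4 min; Activity was normalised to no-enzyme and no-compound control wells.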
Potency is read from the fitted curve at half-maximal effect; tags tell the direction and shape of the fitted curve.

How did the Potency turn out when `COc1ccc(NC(=O)c2cccc(NC(=O)c3ccccc3)c2)c(OC)c1` was run?
Its Potency is inconclusive [inhibitor, full curve, poor fit].

`N#Cc1cc2c(nc1SCC(=O)Nc1ccc(Cl)c(C(F)(F)F)c1)C1CCN2CC1` was tested. Which “activity change, negative = inhibition” value did it give?
The value was inactive: 2.59%.

Which Potency does the source give for `O=C(CCN1C(=O)C2C3C=CC(C3)C2C1=O)NCCc1ccccc1Cl` (centres undefined) here?
Its Potency is inconclusive [inhibitor, full curve, poor fit].

For `COCCNC(=O)c1cc2c(-c3ccccc3F)nn(C)c2s1`, which Potency is on record?
The Potency was inconclusive [inhibitor, single point].

With `COCCn1c(C)cc(O)c(C(c2ccccc2)N2CCN(c3ccccc3)CC2)c1=O` (centres undefined) as the compound, how does the “activity change, negative = inhibition” value read?
The value was inactive: 10%.

With `COc1ccc(-c2csc(/C(C#N)=C\c3ccc(O)c([N+](=O)[O-])c3)n2)cc1OC` as the compound, how does the “activity change, negative = inhibition” value read?
Its value is inactive: -1.93%.

`Cc1cc(OCC(=O)Nc2cccc(S(=O)(=O)N3CCCC3)c2)ccc1Cl` was tested. Which Potency did it give?
Its Potency is inconclusive [inhibitor, full curve, poor fit].

`Cc1ccc(NC(=S)NCCc2ccc(F)cc2)c(C)c1` was tested. Which Potency did it give?
Its Potency is inconclusive [inhibitor, full curve, poor fit].

With `COc1ccc(Cl)cc1NC(=O)CN(C)C(=O)CCSc1ccc(C)cc1` as the compound, how does the “activity change, negative = inhibition” value read?
The value was inactive: -3.67%.

With `O=C(CCCNC(=O)/C(=C\c1ccccc1F)NC(=O)c1ccccc1)OCc1ccccc1` as the compound, how does the Potency read?
The Potency was inconclusive [inhibitor, single point].

How did the Potency turn out when `O=C(Nc1nccs1)c1ccc(COc2ccc(Cl)cc2)o1` was run?
The Potency was inconclusive [inhibitor, full curve, poor fit].

With `CCCCNC(=S)Nc1cc(S(=O)(=O)N2CCCCC2)ccc1C` as the compound, how does the “activity change, negative = inhibition” value read?
Its value is inactive: 3.73%.

`COc1ccccc1Nc1c([N+](=O)[O-])cc(C)cc1[N+](=O)[O-]` was tested. Which “activity change, negative = inhibition” value did it give?
The value was inactive: -12.8%.

With `O=C(NCCO)c1ccc2c(c1)S(=O)(=O)c1ccccc1C2=O` as the compound, how does the Potency read?
The Potency was inconclusive [inhibitor, full curve].

With `Cc1ccc(/C=C2\SC(=S)N(CC(=O)Nc3cccnc3)C2=O)cc1` as the compound, how does the Potency read?
The Potency was inconclusive [inhibitor, full curve, poor fit].

Which Potency does the source give for `O=C(Nc1ccccn1)NC1CCCCC1` here?
Its Potency is inconclusive [inhibitor, partial curve, poor fit].

For `Cc1ccc(-c2cc(NC(=O)CCl)n(-c3ccccc3)n2)cc1`, which “activity change, negative = inhibition” value is on record?
The value was inactive: 8.94%.

With `COCC(=O)NCc1ccc2c(c1)OCO2` as the compound, how does the Potency read?
The Potency was inconclusive [inhibitor, full curve, poor fit].

How did the “activity change, negative = inhibition” value turn out when `COc1cc(Nc2ccccc2Cl)c([N+](=O)[O-])nc1[N+](=O)[O-]` was run?
Its value is inactive: -15.2%.

`CN1CCN(c2ccccc2NC(=O)c2ccc(-c3cccc(Cl)c3)o2)CC1` was tested. Which “activity change, negative = inhibition” value did it give?
Its value is inactive: 9.35%.

How did the Potency turn out when `CCOC(=O)CC1(NC(=O)c2cc(COc3ccc(F)c(F)c3)on2)CCCCC1` was run?
Its Potency is inconclusive [inhibitor, partial curve].

For `CC(C)CN(C(=O)COc1ccc(Br)cc1C=O)C1CCS(=O)(=O)C1` (centres undefined), which Potency is on record?
Its Potency is inconclusive [inhibitor, full curve, poor fit].

For `CCOC(=O)c1c(/N=C/c2cccc(C)c2O)sc2c1CCN(C)C2`, which “activity change, negative = inhibition” value is on record?
Its value is inactive: 0.682%.

With `COc1cccc(NC(=O)CSc2nnc(-c3cccnc3)o2)c1` as the compound, how does the Potency read?
Its Potency is inconclusive [inhibitor, full curve].

How did the “activity change, negative = inhibition” value turn out when `O=C(Nc1ccc(N2CCN(C(=O)c3ccccc3)CC2)cc1)c1ccc2c(c1)OCO2` was run?
Its value is inactive: 3.76%.

How did the Potency turn out when `OC(COc1ccccc1Br)CN1CCNCC1` (centres undefined) was run?
Its Potency is inconclusive [inhibitor, full curve, poor fit].

How did the Potency turn out when `Cc1ccc(C2=N/C(=C\c3ccc(OS(=O)(=O)c4ccc(C)cc4)cc3)C(=O)O2)cc1` was run?
The Potency was inconclusive [inhibitor, full curve, poor fit].

`COc1cc(/C=N/NC(=O)c2ccc(CSc3nncn3C)cc2)cc(OC)c1O` was tested. Which Potency did it give?
Its Potency is inconclusive [inhibitor, single point].

For `Cc1cccnc1-n1c(CN2C(=O)c3ccccc3C2=O)nc2ccccc2c1=O`, which Potency is on record?
The Potency was inconclusive [inhibitor, full curve, poor fit].

How did the Potency turn out when `COC(=O)c1cn(NC(=O)Cc2ccc(Cl)c(Cl)c2)c(=O)c2ccccc12` was run?
Its Potency is inconclusive [inhibitor, full curve, poor fit].

How did the Potency turn out when `Cc1ccc(SCc2ccc(C(=O)Nc3cccnc3)cc2)cc1` was run?
The Potency was inconclusive [inhibitor, partial curve, poor fit].

For `C=CCc1cccc(CNc2cnc3ccccc3c2)c1O`, which Potency is on record?
The Potency was inconclusive [inhibitor, partial curve, poor fit].

With `Brc1ccc(-c2csc(N/N=C/c3ccco3)n2)cc1` as the compound, how does the “activity change, negative = inhibition” value read?
The value was inactive: 1.89%.

For `O=C(c1cc(Br)ccc1Cl)N1CCN(c2ccccn2)CC1`, which “activity change, negative = inhibition” value is on record?
Its value is inactive: -10.4%.

`C=CCSc1nnc(-c2ccccc2NC(=O)CC)c(=O)[nH]1` was tested. Which Potency did it give?
The Potency was inconclusive [inhibitor, full curve, poor fit].

How did the Potency turn out when `O=C(c1cc2ccccc2o1)N1CC=C(c2ccccc2)CC1` was run?
The Potency was inconclusive [inhibitor, full curve, poor fit].

How did the “activity change, negative = inhibition” value turn out when `Cc1cc(C)n2nc(C(=O)N3CCN(c4ccc([N+](=O)[O-])cc4)CC3)nc2n1` was run?
The value was inactive: 5.25%.

`CC(C)NC(=O)CN(C(=O)CCC(=O)Nc1ccccn1)c1ccc(F)c(Cl)c1` was tested. Which Potency did it give?
Its Potency is inconclusive [inhibitor, full curve, poor fit].

For `CCn1cc(SCC(=O)N2CCOCC2)c2ccccc21`, which Potency is on record?
Its Potency is inconclusive [inhibitor, full curve].

Which Potency does the source give for `CSc1ccc(NC(=O)CC(C)=O)cc1` here?
The Potency was inconclusive [inhibitor, partial curve, poor fit].

Which “activity change, negative = inhibition” value does the source give for `CC(C)=Cc1oc2ccc([N+](=O)[O-])cc2c1N1CCOCC1` here?
Its value is inactive: 2.13%.

Which Potency does the source give for `COc1cc2c(cc1OC)[C@H](C)N(C(=O)NCc1ccccc1)CC2` here?
The Potency was inconclusive [inhibitor, single point].

For `O=C(CSc1oc(-c2ccc(F)cc2)nc1S(=O)(=O)c1ccc(F)cc1)NCC1CCCO1` (centres undefined), which “activity change, negative = inhibition” value is on record?
The value was inactive: -9.58%.

Which Potency does the source give for `CC(C)(C)n1ncc2c(=O)n(CC(=O)Nc3ccccc3)cnc21` here?
The Potency was inconclusive [inhibitor, full curve, poor fit].

How did the Potency turn out when `Cc1cc(C)n(C(=O)Cn2nc([N+](=O)[O-])cc2C)n1` was run?
Its Potency is inconclusive [inhibitor, single point].

How did the Potency turn out when `Cc1nc(C(N)=O)nc2ccccc12` was run?
The Potency was inconclusive [inhibitor, single point].

For `O=C(CN1CCCC1)NCC12CC3CC(CC(C3)C1)C2`, which Potency is on record?
The Potency was inconclusive [inhibitor, full curve, poor fit].

How did the “activity change, negative = inhibition” value turn out when `COc1ccccc1C(=O)C1CCCN(C(=O)CCc2ccccn2)C1` (centres undefined) was run?
The value was inactive: 9.67%.

With `COc1cc(N=C2C(=O)N3c4c(cccc42)C(C)=CC3(C)C)cc(OC)c1` as the compound, how does the “activity change, negative = inhibition” value read?
The value was inactive: 5.76%.

`COc1ccc(-c2nnc3n2N(C(C)=O)C(c2ccc(Cl)c(Cl)c2)=C(C(C)=O)S3)cc1` was tested. Which “activity change, negative = inhibition” value did it give?
Its value is inactive: 0.482%.

Which Potency does the source give for `O=C(CSc1ccccc1)NCc1cccnc1` here?
The Potency was inconclusive [inhibitor, full curve, poor fit].

With `O=C(NCC1CCCO1)C1CCCN1C(=O)NC1CCCCC1` (centres undefined) as the compound, how does the Potency read?
Its Potency is inconclusive [inhibitor, full curve, poor fit].

How did the “activity change, negative = inhibition” value turn out when `O=C(Cn1c(SCCOc2ccc(Cl)cc2)nc2ccccc21)N1CCCCC1` was run?
Its value is inactive: -2.55%.

How did the “activity change, negative = inhibition” value turn out when `O=C(N/N=C/C=C/c1ccccc1[N+](=O)[O-])c1ccncc1` was run?
Its value is inactive: 4.76%.

For `COc1ccc(CCNC(=O)C(=O)NCC(c2ccco2)S(=O)(=O)c2ccccc2)cc1` (centres undefined), which “activity change, negative = inhibition” value is on record?
Its value is inactive: 1.04%.

`Cc1ccnc2nc(C(=O)NC3=NCCS3)nn12` was tested. Which Potency did it give?
Its Potency is inconclusive [inhibitor, partial curve, poor fit].

`C/C(N)=C(\C#N)C(=O)NCCc1ccccn1` was tested. Which Potency did it give?
The Potency was inconclusive [inhibitor, partial curve, poor fit].

Which Potency does the source give for `c1ccc(-c2csc3nnc(SCc4ccc5c(c4)OCCO5)n23)cc1` here?
The Potency was inconclusive [inhibitor, partial curve, poor fit].

`COc1cccc(-c2ccc3ncnc(NCc4cccs4)c3c2)c1` was tested. Which Potency did it give?
Its Potency is inconclusive [inhibitor, full curve, poor fit].

`CC(C)C(OC(=O)c1ccc(Cl)nc1)C(=O)NC1CCCCC1` (centres undefined) was tested. Which Potency did it give?
The Potency was inconclusive [inhibitor, single point].

For `CCOc1ccc(N2CC(C(=O)Nc3ncccc3C)CC2=O)cc1` (centres undefined), which Potency is on record?
The Potency was inconclusive [inhibitor, partial curve, poor fit].

Which Potency does the source give for `O=C(/C=C/c1cccc([N+](=O)[O-])c1)NCCSCc1ccc(Cl)cc1Cl` here?
The Potency was inconclusive [inhibitor, partial curve, poor fit].

How did the Potency turn out when `COc1ccc(CNc2cccc(F)c2)cc1Br` was run?
The Potency was inconclusive [inhibitor, full curve, poor fit].

`CC(=O)Oc1ccc2ccc(=O)oc2c1` was tested. Which “activity change, negative = inhibition” value did it give?
Its value is inactive: 7.59%.

With `O=c1oc2ccccc2c(Nc2ccc3ccccc3c2)c1[N+](=O)[O-]` as the compound, how does the Potency read?
The Potency was inconclusive [inhibitor, full curve, poor fit].

`CNC(=O)c1ccc(N(Cc2ccccc2C)S(C)(=O)=O)cc1` was tested. Which Potency did it give?
Its Potency is inconclusive [inhibitor, single point].

For `O=C1Nc2ccccc2/C1=C/c1cnc[nH]1`, which Potency is on record?
Its Potency is inconclusive [inhibitor, partial curve].

For `Cc1cc(C)nc(NC(=O)/C=C/c2ccccc2Cl)c1`, which Potency is on record?
Its Potency is inconclusive [inhibitor, partial curve, poor fit].

With `CCCCNC(=O)c1onc(CSc2ccc(C)c(C)c2)c1C(=O)O` as the compound, how does the Potency read?
Its Potency is inconclusive [inhibitor, partial curve].
